Reference: PubChem BioAssay AID488969 (Vanderbilt High Throughput Screening Facility, 2010)
Whole data set: some 110,000 compounds, median “z-score” near -0.1, cut for the highest 2% near 2. The list shows a part of the results. Residues, ends and D or L forms follow the SMILES beside them. *: point of attachment. PhAc = O=C(Cc1ccccc1)*; OBn = c1ccc(CO*)cc1

Molecular target: Metabotropic glutamate receptor 8 (Rattus norvegicus) (UniProt P70579)
Test: mGluR8 Gi/Go-coupled signaling modulation – cell-based, rat, thallium flux, HTS, primary screen (AID 488969)
Settings: HEK293 rat mGluR8, GIRK (G protein-gated inwardly rectifying potassium channel) thallium flux, FluoZin2; at 10 µM; stronger effect = higher value; submaximal glutamate (EC20) added with thallium

Sequence of UniProt P70579 (P70579 whole entry, looked up): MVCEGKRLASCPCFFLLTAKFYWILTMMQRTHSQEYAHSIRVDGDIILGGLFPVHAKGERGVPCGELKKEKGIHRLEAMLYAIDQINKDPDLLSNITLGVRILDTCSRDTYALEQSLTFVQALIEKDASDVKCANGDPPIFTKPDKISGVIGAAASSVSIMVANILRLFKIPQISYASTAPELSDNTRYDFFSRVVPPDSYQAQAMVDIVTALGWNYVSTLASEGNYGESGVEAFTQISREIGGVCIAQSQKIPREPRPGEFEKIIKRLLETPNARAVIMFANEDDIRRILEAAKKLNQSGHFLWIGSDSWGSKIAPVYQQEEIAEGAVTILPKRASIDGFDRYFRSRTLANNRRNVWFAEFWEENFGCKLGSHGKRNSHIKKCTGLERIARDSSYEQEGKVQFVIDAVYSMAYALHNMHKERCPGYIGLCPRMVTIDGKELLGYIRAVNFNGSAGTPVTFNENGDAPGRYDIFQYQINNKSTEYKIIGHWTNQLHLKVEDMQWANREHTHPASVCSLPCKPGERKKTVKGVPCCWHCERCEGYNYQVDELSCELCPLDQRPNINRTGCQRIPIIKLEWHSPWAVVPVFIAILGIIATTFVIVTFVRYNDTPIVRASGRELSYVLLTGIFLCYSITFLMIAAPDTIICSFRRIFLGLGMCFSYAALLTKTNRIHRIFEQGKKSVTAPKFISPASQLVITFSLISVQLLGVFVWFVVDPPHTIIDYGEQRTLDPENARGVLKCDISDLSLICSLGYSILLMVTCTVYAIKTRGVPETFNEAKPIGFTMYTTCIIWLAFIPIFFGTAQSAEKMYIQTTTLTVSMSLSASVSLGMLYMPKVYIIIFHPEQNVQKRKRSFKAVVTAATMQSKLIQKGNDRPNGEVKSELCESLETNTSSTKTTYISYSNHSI

SMILES | z-score
COC(=O)CCC/C=C1/SCC(NC(=O)c2ccccc2)C1=O (stereo not given) | -0.448
Cc1ccc(N2C(=O)N(CC(=O)N(C)Cc3ccccc3)C(=O)C2C)cc1 (stereo not given) | 0.144
COc1cccc(C2C(C(=O)c3cccs3)=C(O)C(=O)N2c2cc(C)on2)c1 (stereo not given) | -2.01
Cc1cccc(OCC(=O)Nc2cccc(C(=O)Nc3ccccc3C(=O)O)c2)c1 | -0.673
Cc1cccc(C)c1NC(=S)Nc1c(C)n(C)n(-c2ccccc2)c1=O | 0.214
CCOC(=O)c1sc(=S)n(C)c1NC(=O)c1ccccc1C | -0.0912
CN(C)c1ccc(/C=N/N2C(=S)SC(C)(C)C2N(O)C(=O)Nc2ccc([N+](=O)[O-])cc2)cc1 (stereo not given) | 0.883
CCN(CC)CCSc1nc(O)c(C(C)C)c(=O)[nH]1 | 0.101
CCOC(=O)C1=C(N)N(c2ccc(C)cc2)C2=C(C(=O)CCC2)C1c1cccs1 (stereo not given) | -0.711
CCC(Oc1ccccc1)C(=O)Nc1cc(C)on1 (stereo not given) | 0.195
COC(=O)C(=O)/C=C(\O)c1ccc(C)cc1 | -0.0478
O=C(COc1ccc(Cl)cc1Cl)Nn1c(=S)[nH]c2ncccc2c1=O | 1.69
COc1ccc(/C(C)=N/OC/C(O)=C(\C#N)c2nc3ccccc3[nH]2)cc1 | -0.257
Cc1cc(C(F)F)n2ncc(C(=O)N3CCc4ccccc4C3)c2n1 | -0.232
CNC(=O)CN(C1CCCCC1)S(=O)(=O)c1ccc(OC)c(Cl)c1 | -0.0915
CC(C)C(=O)Nc1cccc(NC(=O)c2ccc([N+](=O)[O-])cc2Cl)c1 | -0.0969
CC(=NCCN1CCN(C(C)=C2C(=O)c3ccccc3C2=O)CC1)C1=C(O)CC(C)(C)CC1=O | -0.34
CCOC(=O)c1c(NC(=O)c2ccc(N3C(=O)C4C5C=CC(C5)C4C3=O)cc2)sc2c1CCCC2 (stereo not given) | -0.914
Cn1c(=O)n(CC(=O)OCc2ccccc2)c(=O)c2c1nc1n2CCCN1C1CCCCC1 | -0.623
Nc1nc(C2CC2)c(Sc2sc(N)nc2C2CC2)s1 | -0.619
O=[N+]([O-])c1ccc(/C=N/n2cnc3ccccc32)s1 | -0.164
Cn1c(=O)c2c(nc(NCc3ccc4c(c3)OCO4)n2Cc2ccc(F)cc2)n(C)c1=O | -0.915
O=C(Cn1c(=O)oc2ccccc21)c1ccccc1 | 0.292
C/C(=C\C(=O)C(F)(F)F)Nc1cc(C)cc(C)c1 | -0.152
COc1cc2c(cc1OC)C1(CCCC1)CNC2C (stereo not given) | 0.459
Cn1nc(C(F)(F)F)c(C(=O)Nc2ccc(Cl)cc2)c1Cl | -0.145
CCCCCC(=O)Nc1ccc(Cc2ccncc2)cc1 | 0.275
Cc1nc2ccccn2c1C(=O)NNS(=O)(=O)c1ccc(C(C)(C)C)cc1 | 1.07

SMILES | z-score
COc1ccc(NC(=O)Nc2ccccc2C(=O)N2CCCC2)cc1 | 1.05
O=C(CSC1=NCCS1)NC1CCCC1 | -0.0519
CCOC(=O)CSc1nnc(-c2ccco2)n1C | 0.096
COc1cc2cccc(OC)c(=O)c2c(O)c1OC | -0.371
CCOc1cc(S(=O)(=O)N2CC=C(c3ccc(F)cc3)CC2)c(OCC)cc1-n1cnnn1 | 0.498
COC(=O)COc1ccc(C2NC(=O)NC(c3ccccc3)=C2C(C)=O)cc1OC (stereo not given) | -0.291
COc1cc2nc(/C=C/c3ccc(N(C)C)cc3)sc2cc1SC | -0.35
COC(=O)C(C(=O)OC)=C(/C=C/C=C/N(C)C)N(C)C | 0.735
OC(COc1ccc(OCc2ccccc2)cc1)CN1CCOCC1 (stereo not given) | -0.0779
CCCn1c(SCC(=O)Nc2nc3ccccc3s2)nc2c1c(=O)n(C)c(=O)n2C | -1.19
N#CC1(c2ccc(NC(=O)c3ccccc3)cc2)CCCC1 | -0.494
O=C(CNC(=O)Cc1ccccc1)NCC(=O)OCc1ccccc1 (PhAc-Gly-Gly-OBn) | -0.213
CC(=O)N1CCc2cc(S(=O)(=O)CCC(=O)Nc3ccc4c(c3)OCCO4)ccc21 | 0.183
COC(=O)c1ccc(NC(=O)CC2C(=O)N(c3ccc(C)cc3)C(=O)N2CC(C)C)cc1 (stereo not given) | 0.297
Nc1nc(CN2CCN(c3cccc(Cl)c3)CC2)nc(N2CCCc3ccccc32)n1 | -0.167
O=C(O)c1cccc(N2C(=O)C3CC=CCC3C2=O)c1 (stereo not given) | 0.223
O=C(NCc1cccc(C(F)(F)F)c1)c1cc(Cl)cc(Cl)c1 | -0.1
Cc1cc(C)cc(N2C(=O)CC(n3nc(C)cc3C)C2=O)c1 (stereo not given) | -0.125
COc1ccc(C(=S)N(C)C)cc1OC | 0.735
COC(=O)c1c(N)nc(C)n1-c1ccc(OC)cc1 | 0.698
CCSCCNC(=O)c1cncc(Br)c1 | -0.0461
O=C(CSc1nc2ccccc2o1)N1c2ccccc2Sc2ccc(C(F)(F)F)cc21 | -0.31
Cc1ccc(C(=O)CSc2cc(C)nc(SCC(=O)c3ccccc3)n2)cc1 | -0.324
O=C(Cn1c(=O)sc2ccccc21)Nc1ccc2c(c1)OCCO2 | -0.0557
CCOC(=O)N1CCN(C(=S)NC2CCCCC2)CC1 | -0.473
CCCCc1ccc(NC(=O)C2CCN(S(C)(=O)=O)CC2)cc1 | 1.45
O=C(Oc1ccc2c(c1)OCO2)c1ccc(F)cc1Cl | 0.248
